# ± gives the standard deviation of the averaged measurements. Whole data set: some 33,000 sequences, median “E-score (dimensionless, -0.5 to 0.5)” near -0.049, cut for the highest 2% near 0.37. The list shows a part of the results.
# Tested on: T1, PmTbr T-box DNA-binding domain (GST fusion)
# T1 sequence: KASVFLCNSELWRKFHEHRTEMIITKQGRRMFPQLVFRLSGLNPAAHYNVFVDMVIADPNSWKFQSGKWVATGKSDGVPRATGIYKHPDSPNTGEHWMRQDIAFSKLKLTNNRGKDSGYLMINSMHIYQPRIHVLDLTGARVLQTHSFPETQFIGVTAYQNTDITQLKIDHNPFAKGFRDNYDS
# Experiment: PBM E-score of 8-mer (E-score (dimensionless, -0.5 to 0.5)); Tbr is Tbrain of the sea star Patiria miniata (Pm) or the sea urchin Strongylocentrotus purpuratus (Sp); higher = stronger binding preference; most listed sequences are background and not binding sites
# Conditions: the construct has about 5 more residues each side
# In short: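 Universal Agilent oligonucleotide arrays, made double-stranded by primer extension, were incubated with 200 nM GST-fused Tbr T-box DNA-binding domain in PBS (pH 7.5). The protein was expressed in BL21 E. coli at 20 °C and purified by glutathione affinity chromatography. After scanning and quantification, the Universal PBM Analysis Suite assigned an enrichment E-score to each ungapped 8-mer, averaged over duplicate arrays.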
row,Sequence,PBM E-score of 8-mer
1,TCCCACGA,0.0489 ± 0.034
2,GCTAGGTA,-0.154 ± 0.03
3,AGGCTTAC,-0.163 ± 0.068
4,AAAAACGT,0.0206 ± 0.13
5,CGGCATAC,-0.264 ± 0.019
6,AAGTTGTG,0.304 ± 0.0088
7,CACACGAC,0.193 ± 0.025
8,ATTACACG,0.132 ± 0.12
9,AACAAATA,-0.0317 ± 0.017
10,GAACTTCA,-0.107 ± 0.026
11,GGTGTCAA,0.474 ± 0.0055
12,AGTGCCGA,0.156 ± 0.006
13,GAGATAGC,0.0313 ± 0.022
14,CCCGCTAG,0.00485 ± 0.03
15,CAGAGTTC,-0.142 ± 0.008
16,GCTAAAAC,0.136 ± 0.011
17,CGCCTCAC,0.284 ± 0.037
18,AGGACGGG,-0.308 ± 0.023
19,TAGCGTAA,0.134 ± 0.03
20,CTAGCCTA,-0.021 ± 0.0087
21,CCTGACGA,0.105 ± 0.03
22,CGCCCTTC,-0.000295 ± 0.035
23,GGTACAAC,-0.133 ± 0.062
24,CTCTGCGC,0.0923 ± 0.0056
25,AGTATTGC,-0.0321 ± 0.069

row,Sequence,PBM E-score of 8-mer
1,CCAGGCAC,-0.1548 ± 0.0011
2,CCCTCTCG,0.0695 ± 0.027
3,GAATTTCA,0.0376 ± 0.0096
4,CTCATTGC,-0.166 ± 0.087
5,ATTAGATA,-0.188 ± 0.017
6,AGCCTCCA,-0.096 ± 0.075
7,CAACCAAC,-0.0357 ± 0.0075
8,TTCGGAAA,-0.149 ± 0.067
9,GGGTCAAC,-0.0546 ± 0.098
10,TGAGGGCA,-0.174 ± 0.021
11,ACATCTAC,0.167 ± 0.0066
12,GGGTTCGA,-0.0834 ± 0.013
13,TCCTACCA,-0.0535 ± 0.047
14,ATTCCTTG,0.126 ± 0.08
15,GCAGTTAA,-0.0575 ± 0.045
16,GAAGGAAA,-0.222 ± 0.05
17,AATATCCC,-0.225 ± 0.011
18,ATTAGGGC,-0.211 ± 0.025
19,ATTGAACC,-0.179 ± 0.024
20,CAAATGCG,-0.00842 ± 0.092
21,AACGTCAG,-0.269 ± 0.053
22,CATCGTTC,-0.129 ± 0.002
23,AGCCGCAC,0.0997 ± 0.087
24,AACGCTGT,0.0724 ± 0.032
25,CGAAATAC,-0.0177 ± 0.016

row,Sequence,PBM E-score of 8-mer
1,GTTGCGTA,0.04 ± 0.086
2,AAGCTATA,-0.139 ± 0.0046
3,CAAGGGTC,-0.306 ± 0.022
4,AGCAAATA,-0.0751 ± 0.011
5,GGCTCTAA,0.117 ± 0.085
6,CAGCCATG,-0.1522 ± 0.00017
7,CGTAACGC,0.0922 ± 0.064
8,AGGTCAAG,-0.165 ± 0.0073
9,CCCGCTTA,-0.202 ± 0.061
10,GCAGCTCC,0.0447 ± 0.0076
11,TACTAGAA,-0.278 ± 0.0043
12,GGTTAGAA,-0.267 ± 0.013
13,ATCTCGTA,-0.141 ± 0.0085
14,CGAGGTGC,0.457 ± 0.01
15,GCTAGCTA,0.0889 ± 0.046
16,AACGGAGT,0.111 ± 0.085
17,ACGTAAGC,0.0674 ± 0.031
18,ATGGAGAC,-0.159 ± 0.057
19,ATTATATC,-0.158 ± 0.055
20,CATGCACC,-0.11 ± 0.037
21,CTCGAGTC,-0.257 ± 0.034
22,GAGCCCAA,-0.147 ± 0.029
23,GGTATGAA,-0.0417 ± 0.037
24,AAGATTGC,0.0269 ± 0.04
25,CTGCGTGA,0.121 ± 0.065

row,Sequence,PBM E-score of 8-mer
1,GGGTTGCA,-0.0321 ± 0.041
2,CGGTATTC,-0.156 ± 0.036
3,CCAGATAG,-0.0965 ± 0.062
4,AAAGTTAT,0.0134 ± 0.041
5,AGTAACTC,-0.0139 ± 0.0087
6,GTCCCACA,0.184 ± 0.035
7,AACTTGAG,-0.0256 ± 0.072
8,ATGTGCTA,0.396 ± 0.0083
9,CGACCATC,0.0528 ± 0.0063
10,CATCCACA,0.207 ± 0.033
11,ACGCTAAG,0.142 ± 0.032
12,GGACAGGA,-0.175 ± 0.027
13,GTAGTACA,-0.179 ± 0.0093
14,ATCACGAT,-0.00823 ± 0.00026
15,ATCGAAGG,-0.102 ± 0.029
16,CCCACCGA,0.0185 ± 0.054
17,GGCAGATA,-0.118 ± 0.038
18,GCCGTCGC,0.129 ± 0.043
19,CTATCTGA,0.183 ± 0.026
20,CGATTTCC,0.083 ± 0.072
21,CAGGTCAC,0.165 ± 0.025
22,ACGCTTTA,0.0687 ± 0.07
23,TAATCTGA,-0.115 ± 0.081
24,GGTTAAGA,-0.259 ± 0.074
25,ACGCAGAG,0.0178 ± 0.036

row,Sequence,PBM E-score of 8-mer
1,CAGGCGAC,0.196 ± 0.0031
2,AGCAAAGG,-0.1 ± 0.015
3,GGCGATTA,-0.187 ± 0.037
4,AATGCTAA,-0.109 ± 0.037
5,AGTGTGGG,0.36 ± 0.0037
6,CTTTTATC,-0.0159 ± 9.9e-05
7,GAAACTCC,-0.109 ± 0.016
8,ATTTCGAA,-0.113 ± 0.042
9,CTTGTCCC,-0.152 ± 0.045
10,GGTGAAAC,0.0805 ± 0.054
11,AGTAAGAC,-0.11 ± 0.028
12,TCAGATCA,-0.129 ± 0.038
13,GTACGAGA,-0.179 ± 0.055
14,ACATGACC,-0.0888 ± 0.025
15,CCGAAGAA,-0.235 ± 0.059
16,ACGAACCC,-0.247 ± 0.028
17,TATACTCA,-0.223 ± 0.07
18,GCTCCTCA,-0.141 ± 0.015
19,ATAATTTC,-0.135 ± 0.066
20,AGTCAGTA,-0.00685 ± 0.034
21,GTGAGACA,0.3321 ± 0.0027
22,ATCCTATC,-0.164 ± 0.039
23,GCCAAACC,0.0971 ± 0.069
24,ATAGGAAA,-0.218 ± 0.0043
25,AGTCCTTC,-0.1644 ± 0.00098

row,Sequence,PBM E-score of 8-mer
1,CCCATCCA,-0.159 ± 0.0058
2,CGATGCCG,-0.0591 ± 0.025
3,CGAGCGGC,-0.146 ± 0.064
4,CAAAGCAA,0.0287 ± 0.0068
5,ACTCAACC,-0.195 ± 0.055
6,GCCGGCCA,0.117 ± 0.052
7,ACCCCAAT,-0.11 ± 0.012
8,AGTCAGTC,-0.189 ± 0.16
9,GAGCTAAC,0.07 ± 0.036
10,AATTCCGG,-0.0633 ± 0.059
11,AGTTGACA,0.407 ± 0.008
12,CCGGCGTC,0.0458 ± 0.063
13,ACCGCATA,-0.149 ± 0.053
14,CTCGCGTC,0.16 ± 0.043
15,CAATATAC,-0.0685 ± 0.036
16,ACACCGAT,0.191 ± 0.0068
17,ACAGACAC,0.245 ± 0.053
18,CCTACATC,-0.272 ± 0.027
19,GCTCATCA,-0.115 ± 0.012
20,CGTGCTTA,-0.157 ± 0.03
21,ACTATTCT,-0.0179 ± 0.007
22,GCCATCCC,-0.237 ± 0.083
23,AGTGCTAC,0.276 ± 0.031
24,CCAAGGAC,-0.133 ± 0.021
25,CAAGCTGC,0.0105 ± 0.018

row,Sequence,PBM E-score of 8-mer
1,CAATAACA,0.00373 ± 0.058
2,AGAATTGC,0.125 ± 0.041
3,TGAGCAAA,0.0705 ± 0.069
4,AGAACGCA,-0.107 ± 0.035
5,TCGATCAA,-0.0163 ± 0.0032
6,TCTGTCAA,0.152 ± 0.039
7,CTGTCTGA,-0.0433 ± 0.0046
8,ATGTCCGC,-0.174 ± 0.072
9,GACATCGC,0.0476 ± 0.037
10,ATAAGGTG,0.387 ± 0.0095
11,ATGGTCCA,-0.275 ± 0.063
12,TCGGACAA,-0.0104 ± 0.018
13,TTAGATAA,-0.23 ± 0.014
14,CGTGCATA,-0.211 ± 0.0082
15,GAATTATC,0.00993 ± 0.073
16,CACAAAAC,0.157 ± 0.028
17,CCCCATCC,-0.124 ± 0.0024
18,CAACAGTC,-0.0956 ± 0.065
19,CGGTTTCC,0.00347 ± 0.02
20,AATCACGA,0.0882 ± 0.0077
21,CTCGTATC,0.0014 ± 0.00064
22,AGGTACAT,-0.316 ± 0.051
